# Measurements as given in patent US12201684B2, “Compositions for stimulation of mammalian innate immune resistance to pathogens” (priority 2009, dated 2025).
# No end group written: not given here.
# Experimental: A highly conserved 22 amino acid segment of flagellin, a known ligand of TLR5, was identified. This amino acid segment was submitted for synthesis at Cell Essentials, Inc., Boston, MA. The peptide was confirmed to be >95% pure based on HPLC and Maldi-TOF mass spectrometry, and its solubility in PBS was confirmed. The synthetic fragment of Flg22 was delivered at 100 μg/ml.
sequence,measurement,value
QRLSTGSRINSAKDDAAGLQIA [Flg22],solubility in PBS,confirmed
